# Measurements as given in the supplement of paper PMC8728848.
# Some of the results follow.
# B1: SLR2P2A3 (Tachypleus tridentatus), TAL2_TACTR (protein)
# chain: MEKGTPPTHDSDNWMGRAKKIGNGGWNQFQFLFFDPNGYLYAVSKDKLYKASPPQSDTDNWIARATEIGSGGWSGSKFLFFHPNGYLYAVHGQRLYKALPPVSNQD
# Experiments:
# Assay in all cases: glycan array binding signal (z-score within array); higher = stronger binding
# Settings in all cases: glycan notation: IUPAC condensed, linker removed
# [1] = biological target: GlcNAc(b1-3)Gal(b1-4)Glc
# Outline: (§1)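 Glycan array data were curated from 3228 arrays in the Consortium for Functional Glycomics database and kept only where the protein sequence was available. Glycan names were converted to IUPAC-condensed notation, and columns mapping to the same glycan were averaged. The binding signal is a within-array Z-score, averaged across arrays of the same protein sequence at different concentrations or buffers and across linkers. Negative Z-scores can be read as non-binding.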
# [2] = biological target: GlcNAc(b1-3)Gal(b1-4)GlcNAc
# Outline: as §1
# [3] = biological target: GlcNAc(b1-3)Gal(b1-4)GlcNAc(b1-3)Gal(b1-4)GlcNAc
# Outline: as §1
# [4] = biological target: GlcNAc(b1-3)GalNAc
# Outline: as §1
# [5] = biological target: GlcNAc(b1-3)Man
# Outline: as §1
# [6] = biological target: GlcNAc(b1-3)[GlcNAc(b1-4)][GlcNAc(b1-6)]GlcNAc
# Outline: as §1
# [7] = biological target: GlcNAc(b1-3)[GlcNAc(b1-6)]Gal(b1-4)GlcNAc
# Outline: as §1
# [8] = biological target: GlcNAc(b1-3)[GlcNAc(b1-6)]GalNAc
# Outline: as §1
# [9] = biological target: GlcNAc(b1-4)Gal(b1-4)GlcNAc
# Outline: as §1
# [10] = biological target: GlcNAc(b1-4)GlcNAc
# Outline: as §1
# [11] = biological target: GlcNAc(b1-4)GlcNAc(b1-4)GlcNAc
# Outline: as §1
# [12] = biological target: GlcNAc(b1-4)GlcNAc(b1-4)GlcNAc(b1-4)GlcNAc(b1-4)GlcNAc
# Outline: as §1
# [13] = biological target: GlcNAc(b1-4)GlcNAc(b1-4)GlcNAc(b1-4)GlcNAc(b1-4)GlcNAc(b1-4)GlcNAc
# Outline: as §1
# [14] = biological target: GlcNAc(b1-4)[GlcNAc(b1-6)]GalNAc
# Outline: as §1
# [15] = biological target: GlcNAc(b1-6)Gal(b1-4)GlcNAc
# Outline: as §1
# [16] = biological target: GlcNAc(b1-6)GalNAc
# Outline: as §1
# [17] = biological target: GlcNAc3Prop(b1-4)GlcNAc
# Outline: as §1
# [18] = biological target: Kdn(a2-3)Gal(b1-3)GlcNAc
# Outline: as §1
# [19] = biological target: Kdn(a2-3)Gal(b1-4)GlcNAc
# Outline: as §1
# [20] = biological target: Man(a1-2)Man(a1-2)Man(a1-3)Man
# Outline: as §1
# [21] = biological target: Man(a1-2)Man(a1-2)Man(a1-6)[Man(a1-3)]Man
# Outline: as §1
# [22] = biological target: Man(a1-2)Man(a1-3)Man
# Outline: as §1
# [23] = biological target: Man(a1-2)Man(a1-3)[Man(a1-2)Man(a1-6)]Man
# Outline: as §1
# [24] = biological target: Man(a1-2)Man(a1-3)[Man(a1-2)Man(a1-6)]Man(a1-6)[Man(a1-2)Man(a1-2)Man(a1-3)]Man
# Outline: as §1
# [25] = biological target: Man(a1-2)Man(a1-3)[Man(a1-2)Man(a1-6)]Man(a1-6)[Man(a1-2)Man(a1-2)Man(a1-3)]Man(b1-4)GlcNAc(b1-4)GlcNAc
# Outline: as §1
# [26] = biological target: Man(a1-2)Man(a1-3)[Man(a1-6)]Man(a1-6)[Man(a1-2)Man(a1-3)]Man(b1-4)GlcNAc(b1-4)GlcNAc
# Outline: as §1
# [27] = biological target: Man(a1-2)Man(a1-6)[Man(a1-3)]Man(a1-6)[Man(a1-2)Man(a1-2)Man(a1-3)]Man
# Outline: as §1
# [28] = biological target: Man(a1-2)Man(a1-6)[Man(a1-3)]Man(a1-6)[Man(a1-2)Man(a1-2)Man(a1-3)]Man(b1-4)GlcNAc(b1-4)GlcNAc
# Outline: as §1
# [29] = biological target: Man(a1-3)[Man(a1-6)]Man
# Outline: as §1
# [30] = biological target: Man(a1-3)[Man(a1-6)]Man(a1-6)[Man(a1-2)Man(a1-3)]Man(b1-4)GlcNAc(b1-4)GlcNAc
# Outline: as §1
# [31] = biological target: Man(a1-3)[Man(a1-6)]Man(a1-6)[Man(a1-3)]Man
# Outline: as §1
# [32] = biological target: Man(a1-3)[Man(a1-6)]Man(a1-6)[Man(a1-3)]Man(b1-4)GlcNAc(b1-4)GlcNAc
# Outline: as §1
# [33] = biological target: Man(a1-3)[Man(a1-6)]Man(b1-4)GlcNAc(b1-4)GlcNAc
# Outline: as §1
# [34] = biological target: Man(a1-6)Man
# Outline: as §1
# [35] = biological target: Man(b1-4)GlcNAc
# Outline: as §1
# [36] = biological target: Neu5Ac(a2-3)Gal
# Outline: as §1
# [37] = biological target: Neu5Ac(a2-3)Gal(b1-3)GalNAc
# Outline: as §1
# [38] = biological target: Neu5Ac(a2-3)Gal(b1-3)GalNAc(b1-3)Gal(a1-4)Gal(b1-4)Glc
# Outline: as §1
# [39] = biological target: Neu5Ac(a2-3)Gal(b1-3)GalNAc(b1-3)Gal(b1-4)GlcNAc
# Outline: as §1
# [40] = biological target: Neu5Ac(a2-3)Gal(b1-3)GalNAc(b1-4)[Neu5Ac(a2-3)]Gal(b1-4)Glc
# Outline: as §1
# [41] = biological target: Neu5Ac(a2-3)Gal(b1-3)GalNAc6S
# Outline: as §1
# [42] = biological target: Neu5Ac(a2-3)Gal(b1-3)GlcNAc
# Outline: as §1
# [43] = biological target: Neu5Ac(a2-3)Gal(b1-3)GlcNAc(b1-3)Gal(b1-3)GlcNAc
# Outline: as §1
# [44] = biological target: Neu5Ac(a2-3)Gal(b1-3)GlcNAc6S
# Outline: as §1
# [45] = biological target: Neu5Ac(a2-3)Gal(b1-3)[Fuc(a1-4)]GlcNAc
# Outline: as §1
binder,measurement,setting,value
B1,glycan array binding signal (z-score),[1],5.09
same,glycan array binding signal (z-score),[2],-0.172
same,glycan array binding signal (z-score),[3],-0.322
same,glycan array binding signal (z-score),[4],-0.341
same,glycan array binding signal (z-score),[5],-0.18
same,glycan array binding signal (z-score),[6],-0.089
same,glycan array binding signal (z-score),[7],-0.296
same,glycan array binding signal (z-score),[8],-0.094
same,glycan array binding signal (z-score),[9],-0.305
same,glycan array binding signal (z-score),[10],-0.18
same,glycan array binding signal (z-score),[11],-0.129
same,glycan array binding signal (z-score),[12],-0.041
same,glycan array binding signal (z-score),[13],0.174
same,glycan array binding signal (z-score),[14],-0.545
same,glycan array binding signal (z-score),[15],-0.321
same,glycan array binding signal (z-score),[16],3.83
same,glycan array binding signal (z-score),[17],-0.508
same,glycan array binding signal (z-score),[18],-0.164
same,glycan array binding signal (z-score),[19],-0.323
same,glycan array binding signal (z-score),[20],-0.363
same,glycan array binding signal (z-score),[21],-0.339
same,glycan array binding signal (z-score),[22],-0.223
same,glycan array binding signal (z-score),[23],-0.503
same,glycan array binding signal (z-score),[24],-0.165
same,glycan array binding signal (z-score),[25],0.218
same,glycan array binding signal (z-score),[26],-0.177
same,glycan array binding signal (z-score),[27],0.185
same,glycan array binding signal (z-score),[28],-0.413
same,glycan array binding signal (z-score),[29],-0.503
same,glycan array binding signal (z-score),[30],0.109
same,glycan array binding signal (z-score),[31],0.265
same,glycan array binding signal (z-score),[32],-0.618
same,glycan array binding signal (z-score),[33],-0.255
same,glycan array binding signal (z-score),[34],-0.035
same,glycan array binding signal (z-score),[35],-0.196
same,glycan array binding signal (z-score),[36],-0.353
same,glycan array binding signal (z-score),[37],-0.196
same,glycan array binding signal (z-score),[38],-0.324
same,glycan array binding signal (z-score),[39],-0.576
same,glycan array binding signal (z-score),[40],-0.213
same,glycan array binding signal (z-score),[41],-0.653
same,glycan array binding signal (z-score),[42],0.037
same,glycan array binding signal (z-score),[43],-0.591
same,glycan array binding signal (z-score),[44],-0.354
same,glycan array binding signal (z-score),[45],-0.514
